# Out of some 73,000 compounds screened, about 2,500 (3.4%) were called active. Inconclusive means that the source gave no clear call. Such entries were picked first, then a sample of the others. Calls come from the whole dose curve; as a rule, active = well fitted inhibition curve with a large enough effect; inconclusive = small, poorly fitted or top-dose-only effect; inactive = no such curve, though single readings can be large or run the other way. Where the call is inconclusive, the potency comes from a doubtful curve fit.
# Target: 3-hydroxyacyl-CoA dehydrogenase type-2 (Homo sapiens) (UniProt Q99714)
# UniProt Q99714, sequence (Q99714 whole entry, looked up): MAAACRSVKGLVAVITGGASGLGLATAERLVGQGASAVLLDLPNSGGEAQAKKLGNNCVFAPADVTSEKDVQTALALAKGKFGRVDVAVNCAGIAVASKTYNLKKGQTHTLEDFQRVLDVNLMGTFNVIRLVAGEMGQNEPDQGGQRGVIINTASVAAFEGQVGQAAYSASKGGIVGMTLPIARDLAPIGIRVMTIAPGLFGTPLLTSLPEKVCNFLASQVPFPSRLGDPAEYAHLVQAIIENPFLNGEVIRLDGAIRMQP
# UniProt Q99714, sequence (Q99714 whole entry, looked up): as above
# Test: qHTS Assay for Inhibitors of HADH2 (Hydroxyacyl-Coenzyme A Dehydrogenase, Type II); note: nearly all actives have a fitted effect of over 60% in size
# Conditions: recombinant HADH2, NADH fluorescence, beta-hydroxybutyryl-CoA; activity change, negative = inhibition: at 57.1 µM (top of the series)
# Summary of the method: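 Buffer 100 mM Tris-HCl pH 9.0/0.01% Tween-20; HADH2 20 nM; NAD+ 1 mM; beta-hydroxybutyryl-CoA 90 uM (all final). 15 min cpd preincubation, RT.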
# % is set by controls: 0 for no effect and ±100 for the full control effect; potency is the fitted concentration of half-maximal effect; tags give direction and shape of the fitted curve.
SMILES,Potency,"activity change, negative = inhibition"
COC(=O)Sc1nnc(-c2ccc(Br)cc2)o1,active: 7.94 µM,–
CCc1nnc(NC(=O)C(C)N2C(=O)C3C4C=CC(C4)C3C2=O)s1 (stereo unspecified),inactive,–
COc1ccc(C2C3=C(N=C4SCC(=O)N42)c2ccccc2CC3)cc1OC (stereo unspecified),"inconclusive: 25.1 µM [inhibitor, single point]",–
Cc1ccc(-c2csc3n[nH]c(=S)n23)cc1,"inconclusive: 39.8 µM [inhibitor, single point]",–
CCn1c(CC(=O)Nc2ccc(C)cc2)nnc1SCC(=O)N1CCN(c2ccccc2)CC1,inactive,–
CCOc1ccc2nc3sc(C(=O)N4CCN(C)CC4)c(N)c3cc2c1,"inconclusive: 25.1 µM [inhibitor, single point]",–
Cc1ccc2c(c1)c1c(n2CC(O)CN2C(=O)CNC2=O)C(=O)CCC1 (stereo unspecified),active: 25.1 µM,–
CC1CCCC(C)N1C(=O)c1cc(-c2ccc(Cl)c(Cl)c2)on1 (stereo unspecified),inactive,–
COc1ccc(S(=O)(=O)n2nc(OC(=O)c3ccc(C)cc3)cc2N)cc1,inactive,–
O=c1c(-c2cccc(Cl)c2)nc2cncnc2n1Cc1ccccc1,inactive,–
Cc1cccc(-n2ncc3c(NCCCn4ccnc4)ncnc32)c1,"inconclusive: 39.8 µM [inhibitor, single point]",–
CCc1ccccc1N1CSC2=C(C#N)C(c3ccccc3F)CC(=O)N2C1 (stereo unspecified),"inconclusive: 1.58 µM [inhibitor, full curve]",–
O=C(CSc1nnc2ccccn12)c1ccc2c(c1)OCCO2,"inconclusive: 12.6 µM [inhibitor, partial curve]",–
CCCn1c(=NC(C)=O)c(C(=O)OCC)cc2c(=O)n3ccccc3nc21,active: 31.6 µM,–
CC(=O)Oc1cccc(N2C(=O)c3ccc(C(=O)O)cc3C2=O)c1,"inconclusive: 1 µM [inhibitor, single point]",–
O=c1c(O)c(-c2ccc(O)c(O)c2)oc2c(OC[C@H]3O[C@@H](O)[C@@H](O)[C@H](O)[C@@H]3O)c(O)cc(O)c12,active: 0.631 µM,–
Clc1ccc(-c2nn3c(-c4ccccc4)nnc3s2)cc1,"inconclusive: 31.6 µM [inhibitor, partial curve]",–
Cc1ccc2[nH]c(C)c(CN(C)C3CCN(C)CC3)c(=O)c2c1,inactive,–
Cc1c(C(=O)NCc2ccc3c(c2)OCO3)oc2ccc(S(=O)(=O)N3CCCC3)cc12,"inconclusive: 2 µM [inhibitor, partial curve]",–
COc1ccc2noc3c2c1C(=O)c1ccccc1-3,"inconclusive: 3.16 µM [inhibitor, full curve]",–
CCNc1ncc2nc(C)c(=O)n(C)c2n1,active: 31.6 µM,–
Cc1ccccc1-c1noc(-c2cccs2)n1,inactive,–
CCOC(=O)c1oc2ccccc2c1NC(=O)COc1cccc(OC)c1,"inconclusive: 3.98 µM [inhibitor, single point]",–
Fc1ccc(Nc2nc(-c3cccnc3)nc3ccccc23)cc1,"inconclusive: 25.1 µM [inhibitor, single point]",–
N#Cc1nc(-c2ccco2)oc1NCCN1CCOCC1,"inconclusive: 39.8 µM [inhibitor, single point]",–
O=C(Nc1ccc(O)cc1C(=O)O)c1ccc2c(c1)C(=O)N(Cc1ccco1)C2=O,"inconclusive: 31.6 µM [inhibitor, single point]",–

SMILES,Potency,"activity change, negative = inhibition"
COc1cc2[nH]c(=S)n(NC(=O)CC(C)C)c(=O)c2cc1OC,"inconclusive: 39.8 µM [inhibitor, single point]",–
Cc1ccc(-c2cc(C(F)(F)F)c(C#N)c(SCCC#N)n2)o1,"inconclusive: 7.94 µM [inhibitor, full curve, poor fit]",–
Cc1cc(NCCCN2CCOCC2)n2c(nc3ccccc32)c1C#N,active: 20 µM,–
Cc1cc(C)c2c(n1)nn1c(NCCCN3CCOCC3)cc(C)nc21,active: 25.1 µM,–
O=C1c2ccccc2NC(c2ccc3c(c2)OCCO3)N1c1ccc2c(c1)OCCO2 (stereo unspecified),"inconclusive: 39.8 µM [inhibitor, single point]",–
COC(=O)Nc1c(-c2ccccc2)nc2ccccn12,active: 25.1 µM,–
COc1ccc(CCN(C)CCCOc2ccc(S(=O)(=O)c3[nH]c4ccccc4c3C(C)C)cc2)cc1OC,inactive,–
O=S(=O)(O)c1cc(N=[N+]([O-])c2cc(S(=O)(=O)O)c3ccccc3c2)cc2ccccc12,"inconclusive: 1 µM [inhibitor, full curve]",–
Cc1ccccc1-c1nc(N2CCOCC2)c2ccccc2n1,inactive,–
CC(=O)N1CCC[C@@]2(CCN(c3ncccn3)C2)C1,inactive,–
CCOC(=O)CCC(NC(=O)c1cncc(O)c1)C(=O)OCC (stereo unspecified),active: 25.1 µM,–
C[C@@H]1C[C@H]2[C@H]3C[C@@H](F)C4=CC(=O)C=C[C@]4(C)[C@@]3(Cl)[C@@H](O)C[C@@]2(C)[C@@H]1C(=O)COC(=O)C(C)(C)C,inactive,–
O=C1C2C3C=CC(C3)C2C(=O)N1CNc1ccc(O)cc1 (stereo unspecified),active: 7.94 µM,–
O=C(O)C1CSC2(c3ccc4c(c3)OCCO4)CCC(=O)N12 (stereo unspecified),"inconclusive: 15.8 µM [inhibitor, partial curve]",–
Cn1c(=O)c2c(nc(OC/C=C/c3ccccc3)n2C)n(C)c1=O,"inconclusive: 0.794 µM [inhibitor, full curve]",–
CC(C)N1C(=O)C2C(C(=O)NC3CCCCC3)C3C=CC2(O3)C1C(=O)NC1CCCCC1 (stereo unspecified),inactive,–
COC(=O)C1C(=O)c2c([nH]c(C(=O)OCC3CCCO3)c2C)CC1C (stereo unspecified),inactive,–
CCn1c2ccccc2c2nnc(SCC(=O)Nc3cc(C)on3)nc21,"inconclusive: 6.31 µM [inhibitor, single point]",–
COC(=O)N1CCC2(CCN(Cc3ccccc3OC)CC2)CC1,inactive,–
O=C(CSc1nnc(CNC(=O)c2ccco2)o1)c1ccc(Cl)cc1,"inconclusive: 25.1 µM [inhibitor, partial curve]",–
C=CC[C@@H]1C=C[C@@H](O/N=C2/[C@H]3O[C@@H]3[C@@H](O)[C@H]3[C@H]2CCn2c(=O)n(-c4ccccc4)c(=O)n23)[C@@H](CO)O1,–,inactive: -9.33% [at 11.4 µM]
Cc1ccccc1NC(=O)Cn1nnc(-c2ccc(N3CCOCC3)cc2)n1,"inconclusive: 31.6 µM [inhibitor, single point]",–
Cc1ccc(-c2cc(C(=O)O)n[nH]2)o1,inactive,–
O=S(=O)(c1cccc(C(F)(F)F)c1)N1c2ccccc2-n2cccc2[C@H]1c1cccnc1,–,inactive: 7.49% [at 11.4 µM]
O=C1CCCC(O)=C1C=Nc1ccc(O)cc1,"inconclusive: 31.6 µM [inhibitor, single point]",–
CC1=C(C(=O)N2CCOCC2)C(c2ccsc2)C2=C(CCCC2=O)N1 (stereo unspecified),"inconclusive: 12.6 µM [inhibitor, partial curve]",–

SMILES,Potency,"activity change, negative = inhibition"
CCOc1cc2[nH]c(=S)n(CCCN3CCOCC3)c(=O)c2cc1OCC,inactive,–
CCOC(=O)c1c(C)[nH]c(C)c1C(=O)CSc1nc(N)cc(N)n1,"inconclusive: 12.6 µM [inhibitor, partial curve]",–
COCCOC(=O)/C=C1/NC(=O)CS1,inactive,–
Cc1cc(=O)oc2c(N)c(O)ccc12,"inconclusive: 0.251 µM [inhibitor, full curve]",–
CCOc1ccc(C2c3c(oc4ccccc4c3=O)C(=O)N2c2ccccn2)cc1OC (stereo unspecified),inactive,–
COc1cc(/C=C\C(=O)CC(=O)/C=C\c2ccc(O)c(OC)c2)ccc1O,active: 7.94 µM,–
C[C@@H](CN1CCC(Cc2ccccc2)CC1)[C@H](O)c1ccc(O)cc1,inactive,–
Cc1ccc2cc3cc(C(=O)NCCCN4CCCCCC4)oc3nc2c1,"inconclusive: 31.6 µM [inhibitor, single point]",–
OCCN1CCN(C(=S)c2ccc(Cl)c(Cl)c2)CC1,"inconclusive: 31.6 µM [inhibitor, single point]",–
O=C(c1nc2ccc([N+](=O)[O-])cc2[nH]c1=O)[C@@H](O)c1ccc2c(c1)OCO2,–,inactive: -3.78% [at 11.4 µM]
COc1ccc(C(=O)N2CCC3(CCCN(c4ccccn4)C3)CC2)cc1,"inconclusive: 39.8 µM [inhibitor, single point]",–
CC(/C=C/C=C(C)/C=C/C(=O)O)=C\C=C\C=C(C)\C=C\C=C(C)\C=C\C(=O)O,inactive,–
CCCn1c(=NC(C)=O)c(C#N)cc2c(=O)n3cccc(C)c3nc21,active: 3.16 µM,–
CCOc1ccccc1C1C(C#N)=C(N)SC(N)=C1C#N,inactive,–
Cc1ccc(O)c(C(=O)c2cnn(C(=O)Cc3csc(C)n3)c2)c1,"inconclusive: 25.1 µM [inhibitor, single point]",–
CCCN1C(=O)C(O)(C2CC(=O)CC(C)(C)O2)c2ccccc21 (stereo unspecified),inactive,–
Cc1cccn2c(=O)c(C=Nc3ccc(Cl)cc3)c(NCCO)nc12,"inconclusive: 39.8 µM [inhibitor, single point]",–
Cc1cc(C)n(C(=O)C23CC4CC(CC(C4)C2)C3)n1,inactive,–
Cc1nc2cnc(OCc3ccccc3)nc2n(CCC#N)c1=O,inactive,–
N#CC1=C(SCc2ccccc2)NC(=O)CC1c1ccc(O)cc1 (stereo unspecified),"inconclusive: 5.01 µM [inhibitor, single point]",–
CCOC(=O)/C=C1\Nc2ccccc2SC1=O,inactive,–
Cc1cccc(CNc2cc(-c3ccccc3C)ncn2)c1,inactive,–
Cc1ccc(S(=O)(=O)N2CCCCC2)cc1C(=O)Nc1ccc2cn[nH]c2c1,"inconclusive: 7.94 µM [inhibitor, single point]",–
CCc1ccc(OCC(=O)NCc2ccco2)c(Br)c1,"inconclusive: 20 µM [inhibitor, partial curve]",–

# Reference: PubChem BioAssay AID886 (National Center for Advancing Translational Sciences (NCATS), 2007)
